Laboratory results taken from the supplement of paper PMC7826260.
The other results are listed elsewhere or left out. Each Rep nickase domain was tested in vitro on the same pool of single strands (1 h at 37 °C, 3 µM enzyme); the outer parts of the 90-letter strands are left off. Uncut reads are compared with the no-enzyme pool on a log2 scale; the lower, the more was cut; hits are not called. Counts are relative to all reads; where an enzyme cuts many sequences, the uncut ones exceed 0.

Tests used:
Test in all cases: uncleaved DNA left, log2 of reads against the no-enzyme library (log2 ratio); higher = less cleavage (more negative = more Rep cleavage of the k-mer); sequences stand for … in CTCGTCCG…ACCGGAGA
[1] = system: T1, Rep nickase domain of Muscovy duck circovirus
T1 sequence (protein, residues 1-111, tag omitted): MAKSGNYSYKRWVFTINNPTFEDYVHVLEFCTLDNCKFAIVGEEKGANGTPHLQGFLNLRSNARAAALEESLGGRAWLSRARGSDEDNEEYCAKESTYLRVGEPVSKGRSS
Description: (§1)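 A pool of 90-nt single-stranded DNAs with seven random bases just before the constant AC of the nick site (name = the seven bases) was cut by 3 µM recombinant His6-SUMO-tagged Rep nickase domain (300 nM DNA, 50 mM HEPES pH 8.0, 50 mM NaCl, 1 mM MnCl2, 1 h, 37 °C, three replicates). Uncut DNA was amplified and sequenced.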

[2] = system: T2, Rep nickase domain of banana bunchy top virus
T2 sequence (protein, residues 1-94, tag omitted): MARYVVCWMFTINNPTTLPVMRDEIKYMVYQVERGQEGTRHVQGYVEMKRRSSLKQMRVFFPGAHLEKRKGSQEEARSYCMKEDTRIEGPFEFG
Description: as §1

[3] = system: T3, Rep nickase domain of cabbage leaf curl virus
T3 sequence (protein, residues 1-116, tag omitted): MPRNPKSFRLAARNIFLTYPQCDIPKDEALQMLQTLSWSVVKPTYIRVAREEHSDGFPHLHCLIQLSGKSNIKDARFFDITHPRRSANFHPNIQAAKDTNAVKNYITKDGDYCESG
Description: as §1

[4] = system: T4, Rep nickase domain of chickpea chlorotic dwarf virus
T4 sequence (protein, residues 1-124, tag omitted): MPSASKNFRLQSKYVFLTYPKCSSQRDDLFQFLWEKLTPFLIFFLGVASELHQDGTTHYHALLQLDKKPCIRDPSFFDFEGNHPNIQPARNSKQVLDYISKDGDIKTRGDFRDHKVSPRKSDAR
Description: as §1

[5] = system: T5, Rep nickase domain of faba bean necrotic yellows virus
T5 sequence (protein, residues 1-98, tag omitted): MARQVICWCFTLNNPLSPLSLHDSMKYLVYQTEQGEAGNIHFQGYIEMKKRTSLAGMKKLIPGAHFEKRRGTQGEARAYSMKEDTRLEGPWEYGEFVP
Description: as §1

[6] = system: T6, Rep nickase domain of maize striate mosaic virus
T6 sequence (protein, residues 1-117, tag omitted): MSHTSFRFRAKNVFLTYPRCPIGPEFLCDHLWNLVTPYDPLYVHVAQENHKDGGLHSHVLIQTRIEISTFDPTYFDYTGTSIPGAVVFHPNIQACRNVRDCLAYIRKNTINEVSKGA
Description: as §1

[7] = system: T7, Rep nickase domain of porcine circovirus 2
T7 sequence (protein, residues 2-116, tag omitted): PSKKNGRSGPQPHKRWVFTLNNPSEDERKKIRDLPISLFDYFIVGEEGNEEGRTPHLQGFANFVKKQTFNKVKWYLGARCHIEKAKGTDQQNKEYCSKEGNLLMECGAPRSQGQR
Description: as §1

[8] = system: T8, Rep nickase domain of tomato yellow leaf curl virus
T8 sequence (protein, residues 1-136, tag omitted): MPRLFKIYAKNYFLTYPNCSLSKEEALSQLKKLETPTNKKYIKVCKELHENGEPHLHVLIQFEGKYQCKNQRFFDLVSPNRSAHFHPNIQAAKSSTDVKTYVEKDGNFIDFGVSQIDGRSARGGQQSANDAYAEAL
Description: as §1

[9] = system: T9, Rep nickase domain of wheat dwarf virus
T9 sequence (protein, residues 1-137, tag omitted): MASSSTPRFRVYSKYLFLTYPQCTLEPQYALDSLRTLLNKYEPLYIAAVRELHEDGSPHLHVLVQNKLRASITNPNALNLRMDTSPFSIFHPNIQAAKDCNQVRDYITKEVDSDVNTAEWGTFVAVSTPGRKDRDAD
Description: as §1

Sequence | uncleaved DNA left (log2) [1] | uncleaved DNA left (log2) [2] | uncleaved DNA left (log2) [3] | uncleaved DNA left (log2) [4] | uncleaved DNA left (log2) [5] | uncleaved DNA left (log2) [6] | uncleaved DNA left (log2) [7] | uncleaved DNA left (log2) [8] | uncleaved DNA left (log2) [9]
CCACGTG | 0.153 | 0.068 | -0.765 | -0.584 | 0.124 | -0.867 | 0.237 | 0.116 | -0.107
ACCCATG | -0.048 | 0.163 | -0.576 | -0.359 | 0.00575 | -1.04 | 0.216 | 0.204 | 0.0137
ATATTAT | -0.863 | 0.055 | -0.178 | -1.28 | 0.0908 | -0.576 | -1.8 | 0.0826 | -0.00334
TGCGAGT | -0.0165 | -0.194 | -0.224 | 0.0416 | -0.173 | 0.373 | -0.0827 | -0.209 | -0.107
AAAATGA | 0.0371 | -0.0293 | -0.0646 | -0.332 | 0.0268 | -0.873 | 0.141 | 0.00449 | 0.0182
TACGCAT | 0.122 | 0.0401 | -0.816 | -2.5 | 0.105 | -0.755 | -0.185 | -0.00358 | -0.0897
CAGGTGG | -0.143 | -0.0407 | -0.335 | -0.0423 | -0.128 | -0.649 | 0.0712 | -0.113 | -0.108
ATCAGAA | 0.0814 | 0.0999 | 0.132 | -0.0547 | 0.0561 | -0.632 | 0.133 | 0.0446 | 0.103
ACAAGGT | 0.0616 | -0.136 | 0.0524 | 0.128 | -0.0365 | -0.274 | 0.134 | -0.0989 | -0.144
ATTTTGC | 0.0711 | -0.0421 | -0.686 | -0.0353 | 0.0974 | -1.03 | 0.175 | 0.121 | -0.027
TTCGTAC | -0.033 | -0.0564 | -0.00278 | -0.663 | -0.0527 | -0.487 | -0.0778 | 0.0239 | 0.0301
GTATTAG | -0.0787 | -0.062 | -0.45 | -0.544 | -0.0785 | -1.07 | 0.0574 | -0.102 | -0.1
GGGACAG | 0.0774 | 0.242 | 0.984 | 2.24 | -0.0292 | 2.48 | 0.393 | -0.369 | 0.269
AATAATC | 0.0288 | 0.114 | 0.0985 | -0.209 | 0.066 | -0.693 | 0.0828 | 0.0159 | 0.0702
ATTAGAT | 0.0044 | 0.119 | 0.337 | 1.23 | 0.102 | 1.35 | -0.0139 | -0.0401 | 0.164
TCGGTGA | 0.104 | -0.0599 | 0.0382 | -0.162 | 0.00015 | -0.642 | 0.18 | -0.163 | -0.0917
CCCCTCG | -0.252 | -0.141 | -0.749 | -0.0909 | -0.234 | -0.784 | -0.191 | -0.183 | -0.0469
CCGAAAA | -0.053 | -0.0788 | 0.0212 | -0.116 | 0.0245 | -0.439 | 0.0379 | 0.00351 | 0.118
CAGCTCC | 0.0327 | -0.0755 | -0.213 | -0.0995 | -0.0138 | 0.855 | -0.0579 | 0.0128 | 0.0345
TTGGACG | 0.135 | 0.0685 | -0.314 | -0.281 | -0.0695 | -1.03 | 0.0342 | 0.0714 | -0.00475
GGACAAT | -0.00553 | -0.0797 | 0.794 | 1.96 | -0.0562 | 2.19 | 0.0615 | 0.0251 | 0.198
TATGCTG | -0.0623 | -0.0548 | 0.0463 | 0.929 | -0.0461 | 1.07 | 0.0325 | -0.0765 | -0.0364
TTACATC | -0.0567 | -0.0487 | -0.0239 | -1.53 | -0.0445 | -0.548 | -0.0344 | -0.0704 | -0.0272
TCCCGCG | -0.0237 | -0.0196 | -0.669 | 0.444 | -0.00161 | -0.714 | 0.0219 | -0.0775 | -0.221
TATTGCC | -0.152 | -0.081 | -0.774 | -0.38 | -0.0745 | -1.07 | -0.0365 | 0.00168 | -0.159
CTAAAGA | -0.0208 | 0.0219 | -0.115 | -0.192 | -0.0782 | -0.95 | 0.177 | 0.0433 | -0.0768
CTCCTAG | 0.165 | 0.0521 | -0.703 | -0.344 | 0.139 | -0.843 | 0.122 | 0.189 | 0.0442
CGTGCTT | -0.0379 | -0.0364 | -0.0672 | -0.886 | -0.0173 | -0.15 | -0.406 | -0.131 | -0.087
